# Some of the results follow.
# B1: Epa3to1 (Candida glabrata) (protein)
# chain: MGSSHHHHHHSSGLVPRGSHMKRELSSQNPFGYPIGCSPQDVAIIPGLTMELYSYPIVSGTPPNCYDASYVDPEYPRTGYLKRKMVGKSTGVTGNLNYKYSVEKACMVKYGNLPAGYNYNEPLTVSNFTMILYGYFKAQTTGLHTFFVNADDLLYINFGAGNAFDCCKREDSKTKLGEYVAYDIWHVDSSKNKVSLFLEKDLYYPIRMFFNNREYDSSLDLSFSVNGATDQISDFSGYLYSVPDQPDTCPAHIGYDTTCR
# What was measured:
# Test in all cases: glycan array binding signal (z-score within array); higher = stronger binding
# Conditions in all cases: glycan notation: IUPAC condensed, linker removed
# [1] = molecular target: GlcNAc(b1-2)Gal(b1-3)GalNAc
# Procedure, shortened: (§1)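 From the Consortium for Functional Glycomics database, 3228 arrays were curated, keeping only those whose protein sequence was available. Binding is given as a within-array Z-score averaged across arrays sharing a protein sequence and across linkers. Negative Z-scores can be read as non-binding.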
# [2] = molecular target: GlcNAc(b1-2)Man(a1-3)[GlcNAc(b1-2)Man(a1-6)]Man(b1-4)GlcNAc(b1-4)GlcNAc
# Procedure, shortened: as §1
# [3] = molecular target: GlcNAc(b1-2)Man(a1-3)[GlcNAc(b1-2)Man(a1-6)]Man(b1-4)GlcNAc(b1-4)[Fuc(a1-6)]GlcNAc
# Procedure, shortened: as §1
# [4] = molecular target: GlcNAc(b1-2)Man(a1-3)[GlcNAc(b1-4)][GlcNAc(b1-2)Man(a1-6)]Man(b1-4)GlcNAc(b1-4)GlcNAc
# Procedure, shortened: as §1
# [5] = molecular target: GlcNAc(b1-2)Man(a1-3)[GlcNAc(b1-4)][GlcNAc(b1-2)Man(a1-6)]Man(b1-4)GlcNAc(b1-4)[Fuc(a1-6)]GlcNAc
# Procedure, shortened: as §1
# [6] = molecular target: GlcNAc(b1-2)[GlcNAc(b1-4)]Man(a1-3)[GlcNAc(b1-2)Man(a1-6)]Man(b1-4)GlcNAc(b1-4)GlcNAc
# Procedure, shortened: as §1
# [7] = molecular target: GlcNAc(b1-2)[GlcNAc(b1-4)]Man(a1-3)[GlcNAc(b1-4)][GlcNAc(b1-2)Man(a1-6)]Man(b1-4)GlcNAc(b1-4)GlcNAc
# Procedure, shortened: as §1
# [8] = molecular target: GlcNAc(b1-2)[GlcNAc(b1-4)]Man(a1-3)[GlcNAc(b1-4)][GlcNAc(b1-2)[GlcNAc(b1-6)]Man(a1-6)]Man(b1-4)GlcNAc(b1-4)GlcNAc
# Procedure, shortened: as §1
# [9] = molecular target: GlcNAc(b1-2)[GlcNAc(b1-4)]Man(a1-3)[GlcNAc(b1-4)][GlcNAc(b1-2)[GlcNAc(b1-6)]Man(a1-6)]Man(b1-4)GlcNAc(b1-4)[Fuc(a1-6)]GlcNAc
# Procedure, shortened: as §1
# [10] = molecular target: GlcNAc(b1-2)[GlcNAc(b1-6)]Man(a1-6)[GlcNAc(b1-2)Man(a1-3)]Man(b1-4)GlcNAc(b1-4)GlcNAc
# Procedure, shortened: as §1
# [11] = molecular target: GlcNAc(b1-2)[GlcNAc(b1-6)]Man(a1-6)[GlcNAc(b1-2)Man(a1-3)]Man(b1-4)GlcNAc(b1-4)[Fuc(a1-6)]GlcNAc
# Procedure, shortened: as §1
# [12] = molecular target: GlcNAc(b1-2)[GlcNAc(b1-6)]Man(a1-6)[GlcNAc(b1-4)][GlcNAc(b1-2)Man(a1-3)]Man(b1-4)GlcNAc(b1-4)GlcNAc
# Procedure, shortened: as §1
# GlcNAc(b1-3)Fuc = molecular target: GlcNAc(b1-3)Fuc
# Procedure, shortened: as §1
# GlcNAc(b1-3)Gal = molecular target: GlcNAc(b1-3)Gal
# Procedure, shortened: as §1
# [13] = molecular target: GlcNAc(b1-3)Gal(b1-3)GalNAc
# Procedure, shortened: as §1
# GlcNAc(b1-3)Gal(b1-4)Glc = molecular target: GlcNAc(b1-3)Gal(b1-4)Glc
# Procedure, shortened: as §1
# [14] = molecular target: GlcNAc(b1-3)Gal(b1-4)GlcNAc
# Procedure, shortened: as §1
# [15] = molecular target: GlcNAc(b1-3)Gal(b1-4)GlcNAc(b1-2)Man(a1-3)[GlcNAc(b1-3)Gal(b1-4)GlcNAc(b1-2)Man(a1-6)]Man(b1-4)GlcNAc(b1-4)GlcNAc
# Procedure, shortened: as §1
binder,measurement,setting,value
B1,glycan array binding signal (z-score),[1],-0.767
same,glycan array binding signal (z-score),[2],-0.236
same,glycan array binding signal (z-score),[3],-0.421
same,glycan array binding signal (z-score),[4],0.588
same,glycan array binding signal (z-score),[5],-0.266
same,glycan array binding signal (z-score),[6],-0.332
same,glycan array binding signal (z-score),[7],-0.209
same,glycan array binding signal (z-score),[8],-0.24
same,glycan array binding signal (z-score),[9],-0.017
same,glycan array binding signal (z-score),[10],-0.435
same,glycan array binding signal (z-score),[11],-0.617
same,glycan array binding signal (z-score),[12],-0.418
same,glycan array binding signal (z-score),GlcNAc(b1-3)Fuc,-0.291
same,glycan array binding signal (z-score),GlcNAc(b1-3)Gal,-0.609
same,glycan array binding signal (z-score),[13],0.077
same,glycan array binding signal (z-score),GlcNAc(b1-3)Gal(b1-4)Glc,-0.261
same,glycan array binding signal (z-score),[14],-0.693
same,glycan array binding signal (z-score),[15],-0.383

# Reference: the supplement of paper PMC8728848
